Results: PubChem BioAssay AID1347417 (National Center for Advancing Translational Sciences (NCATS), 2020)
The whole screen tested about 120,000 compounds, of which about 5,300 (4.4%) were called active. Inconclusive means that the source gave no clear call. Such entries were picked first, then a sample of the others. Calls come from the whole dose curve; as a rule, active = well fitted inhibition curve with a large enough effect; inconclusive = small, poorly fitted or top-dose-only effect; inactive = no such curve, though single readings can be large or run the other way. A potency beside an inconclusive call is a rough fit, not a confirmed value.
Potency is the fitted concentration of half-maximal effect; tags give direction and shape of the fitted curve.

Assay: qHTS Primary assay for Inhibitors of Plasmodium falciparum Dd2 growth in vitro; note: nearly all actives have a fitted effect of over 65% in size
Conditions: P. falciparum Dd2 growth, SYBR Green, 72 h; series mostly up to 28.9 µM
Summary of the method: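 Infected erythrocytes (Dd2, 0.3% parasitemia, 2.5% hematocrit final) are added to compound in RPMI-1640/Albumax II medium, grown 72 h at 37C in low oxygen, then lysed with saponin/Triton-X containing SYBR Green and read by fluorescence.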
In the case of CN(Cc1nccn1Cc1ccccc1)C(=O)CCc1ccc2c(c1)OCO2, the Potency is reported as “inactive”.
In the case of Cc1ccc(C)c(N2CCN(CCCNC(=O)c3cnn(-c4ccc(F)cc4)c3C3CCN(C(=O)OC(C)(C)C)CC3)CC2)c1, the Potency is reported as active: 1.26 µM.
For C#CCn1c(=O)n(-c2cccc(Cl)c2C)c(=O)c2c3c(sc21)CN(C(C)=O)CC3, the Potency was “inactive”.
For CC(C)c1nc2c(c(-c3ccc(O)cc3)n1)CN([S+](=O)([O-])c1cccc(C(F)(F)F)c1)CC2, the Potency was inconclusive: 5.62 µM [inhibitor, partial curve, poor fit].
With O=[S+]([O-])(c1ccc(Cl)cc1)c1nnn2c1nc(N1CCC(F)CC1)c1ccccc12 the Potency was inconclusive: 8.91 µM [inhibitor, partial curve].
In the case of O=C(O)CSc1nc2ccc(NC(=O)COc3ccc(Cl)cc3)cc2s1, the Potency is reported as inconclusive: 11.2 µM [inhibitor, single point].
For Cc1ccc2c(C(=O)NCc3ccccc3C(F)(F)F)cc(NC(=O)C(C)C)cc2n1, the Potency was inconclusive: 10 µM [inhibitor, single point].
For c1ccc2c(c1)cnn2CCCn1ccnc1-c1cc2n(n1)CCCNC2, the Potency was “inactive”.
With CC(=O)Nc1ccccc1-c1c(C)nn2c1N(C(=O)c1ccc(Oc3ccccc3)cc1)CCC2 the Potency was inconclusive: 7.94 µM [inhibitor, partial curve, poor fit].
For COc1ccccc1OCC(=O)c1ccc2c(c1)N(CC(=O)N(C)Cc1ccccc1)C(=O)CO2, the Potency was inconclusive: 2.82 µM [inhibitor, single point].
In the case of COc1cc(OC)c(NC2=C(c3ccc(C(F)(F)F)cc3)C(=O)c3ccccc32)cc1Cl, the Potency is reported as inconclusive: 17.8 µM [inhibitor, single point].
In the case of CC(C)CCN1CCCC2(C1)NC(=O)c1ccccc1O2 (centres undefined), the Potency is reported as inconclusive: 10 µM [inhibitor, partial curve, poor fit].
For CNC(=O)[C@@H]1C[C@H](n2cc(CNC(=O)Nc3cc(F)ccc3F)nn2)CN1, the Potency was “inactive”.
In the case of CCc1cccc(C)c1NC(=O)CN1C(=O)C2(SCC(=O)N2c2cccc(F)c2)c2ccccc21 (centres undefined), the Potency is reported as inconclusive: 11.2 µM [inhibitor, single point].
For Cc1cnc(C(=O)N2CCC(c3noc(-c4ccccn4)n3)C2)cn1 (centres undefined), the outcome was “inactive [at 5.79 µM]”.
In the case of COc1cccc(C(=O)N2c3ncnn3C3(CCCCC3)[C@@H]3CCCC[C@@H]32)c1, the Potency is reported as inconclusive: 10 µM [inhibitor, partial curve, poor fit].
For CCCCc1ccc(NC(=O)c2ccc3c(c2)CCN3S(=O)(=O)CC)cc1, the Potency was inconclusive: 20 µM [inhibitor, single point].
For Cc1ccccc1OCC(=O)NCC(c1ccc(Cl)cc1)N1CCCCC1 (centres undefined), the Potency was inconclusive: 8.91 µM [inhibitor, single point].
With COc1ccc(C(=O)CC2(O)C(=O)N(Cc3cccc(C(F)(F)F)c3)c3ccccc32)cc1 (centres undefined) the Potency was inconclusive: 10 µM [inhibitor, single point].
With CCOc1ccc(CC(=O)N2CCN(c3cc(-c4ccc(OC)cc4)[nH]n3)CC2)cc1 the Potency was inconclusive: 1 µM [inhibitor, full curve].
In the case of O=C(Cc1cccc(Cl)c1)N1CCC(c2nn(-c3ccc(F)cc3)c(=O)[nH]2)CC1, the Potency is reported as inconclusive: 10 µM [inhibitor, single point].
In the case of CCOC(=O)c1cccc(NC(=O)c2oc3c(c2C)-c2nn(CC)cc2CC3)c1, the Potency is reported as inconclusive: 17.8 µM [inhibitor, single point].
In the case of COc1ccc(CNC(=O)C(C)n2nc(C)c3c(C)n(-c4ccccc4)nc3c2=O)c(OC)c1 (centres undefined), the Potency is reported as inconclusive: 17.8 µM [inhibitor, partial curve, poor fit].
For CCCCN(CCC(=O)NCCc1ccccc1)C(=O)c1cc(C)oc1C, the Potency was inconclusive: 6.31 µM [inhibitor, partial curve, poor fit].
For CCC(=O)N(C1CCOCC1)C1CCN(Cc2ccc[nH]2)CC1, the Potency was inconclusive: 3.98 µM [inhibitor, single point].
In the case of COc1cccc(CN2CCCN(S(C)(=O)=O)C(c3ccccc3)CC(=O)NCC2)c1 (centres undefined), the Potency is reported as inconclusive: 6.31 µM [inhibitor, partial curve, poor fit].
In the case of CCNC(=O)NC[C@H]1C[C@@H]2CCN1C[C@@H]2c1cc(-c2ccc(N(C)C)cc2)nc(C)n1, the Potency is reported as “inactive”.
In the case of Cc1cc(Cl)ccc1NC(=O)N1C[C@H](c2nc(-c3cccnc3)no2)[C@@H](C)C1, the Potency is reported as inconclusive: 0.158 µM [inhibitor, full curve, poor fit].
For COc1ccc(OC)c(Nc2sc(C(=O)c3ccccc3)c(N)c2S(=O)(=O)c2ccccc2)c1, the Potency was active: 8.91 µM.
In the case of O=c1oc2ccccc2c(N2CCN(c3ccc(F)cc3)CC2)c1CN1CCCC1, the Potency is reported as inconclusive: 7.94 µM [inhibitor, partial curve, poor fit].
With Cc1cccc(N2CCN(S(=O)(=O)c3cc(C(=O)Nc4ccc(Oc5ccccc5)cc4)ccc3F)CC2)c1C the Potency was inconclusive: 11.2 µM [inhibitor, single point].
In the case of O=C(Cn1ncc2c([nH]c3ccccc32)c1=O)NCCCN1CCN(c2ccccc2)CC1, the Potency is reported as inconclusive: 12.6 µM [inhibitor, single point].
With Cc1ccc(NC(=O)c2cc3n(n2)CC(c2ccc(Cl)cc2)OC3)cc1C (centres undefined) the Potency was “inactive”.
For O=C(CCc1ccccc1)N1CCOCC12CCN(Cc1ccccc1)CC2, the Potency was inconclusive: 8.91 µM [inhibitor, partial curve, poor fit].
With Cc1ccccc1-c1cc(O)c2c(c1)CN(Cc1ccoc1)CCO2 the Potency was active: 11.2 µM.
With COc1ccc(CCC(=O)Nc2ccc3c(N4CCOCC4)ncnc3c2)cc1 the Potency was inconclusive: 3.98 µM [inhibitor, single point].
For COc1ccccc1CNC(=O)C(C)n1c(=O)cc(-c2ccccc2)c2c(C)nn(C)c21 (centres undefined), the Potency was “inactive”.
With COCC(=O)NC[C@H]1CCN(Cc2cccc(OC)c2)C[C@H]1N(C)C the Potency was inconclusive: 4.47 µM [inhibitor, single point].
In the case of O=C([C@@H]1C[C@H](F)CN1S(=O)(=O)Cc1ccccc1Cl)N1CCc2ccccc2C1, the Potency is reported as inconclusive: 10 µM [inhibitor, partial curve, poor fit].
